Reference: PMC4336329 (PLoS ONE, 2015)
The whole screen tested about 310,000 compounds, of which about 2,200 (0.71%) showed an effect of 50% or more. Effects have a minus sign here. The list shows a part of the results.

These compounds were tested against human ether-à-go-go-related gene (hERG) potassium channel (human, UniProt Q12809) (assay: primary screen, population patch clamp on CHO cells stably expressing hERG).
Sequence of human ether-à-go-go-related gene (hERG) potassium channel (Q12809 whole entry, looked up): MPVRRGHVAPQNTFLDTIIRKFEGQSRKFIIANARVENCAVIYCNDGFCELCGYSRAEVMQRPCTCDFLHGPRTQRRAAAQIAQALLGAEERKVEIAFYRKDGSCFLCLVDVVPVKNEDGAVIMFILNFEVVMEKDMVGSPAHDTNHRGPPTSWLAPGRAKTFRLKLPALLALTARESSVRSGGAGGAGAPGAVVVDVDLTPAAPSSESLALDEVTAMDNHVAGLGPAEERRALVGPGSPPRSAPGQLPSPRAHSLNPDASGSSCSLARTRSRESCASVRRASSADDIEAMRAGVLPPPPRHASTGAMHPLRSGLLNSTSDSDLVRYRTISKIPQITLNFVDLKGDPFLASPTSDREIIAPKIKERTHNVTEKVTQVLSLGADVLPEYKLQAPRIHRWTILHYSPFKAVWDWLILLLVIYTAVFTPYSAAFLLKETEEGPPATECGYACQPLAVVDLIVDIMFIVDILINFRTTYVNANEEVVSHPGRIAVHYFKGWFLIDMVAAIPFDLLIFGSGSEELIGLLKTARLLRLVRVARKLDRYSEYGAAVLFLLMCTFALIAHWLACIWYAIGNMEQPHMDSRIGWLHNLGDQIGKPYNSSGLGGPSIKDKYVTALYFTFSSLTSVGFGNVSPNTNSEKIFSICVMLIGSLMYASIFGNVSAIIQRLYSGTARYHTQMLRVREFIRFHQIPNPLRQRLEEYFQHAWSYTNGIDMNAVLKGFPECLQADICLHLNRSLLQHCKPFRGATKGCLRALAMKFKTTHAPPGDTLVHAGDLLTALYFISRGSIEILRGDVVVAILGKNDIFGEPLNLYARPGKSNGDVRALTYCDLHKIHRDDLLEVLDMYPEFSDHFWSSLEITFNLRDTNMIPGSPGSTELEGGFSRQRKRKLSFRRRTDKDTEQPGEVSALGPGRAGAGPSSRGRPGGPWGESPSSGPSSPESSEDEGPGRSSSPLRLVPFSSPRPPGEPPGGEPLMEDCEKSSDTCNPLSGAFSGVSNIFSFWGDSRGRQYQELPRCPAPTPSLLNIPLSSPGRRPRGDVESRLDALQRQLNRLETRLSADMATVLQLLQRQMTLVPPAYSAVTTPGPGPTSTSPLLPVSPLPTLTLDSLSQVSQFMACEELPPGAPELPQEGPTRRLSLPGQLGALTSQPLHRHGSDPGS

Compound	hERG current change (%, negative = inhibition) at 1uM
CN(/N=C/c1ccncc1)c1cnc2ccccc2n1	12%
CC(=O)CSc1nnc(-c2ccc(S(=O)(=O)N3CCCC3)cc2)n1C	19.6%
O=C(N/N=C/c1ccccn1)c1cc(-c2ccncc2)nc2ccccc12	8.53%
CC(=O)c1ccc(N(CC(=O)NC2CCCCC2)C(=O)CNC(=O)c2cccs2)cc1	16.4%
NC(=O)C1CNc2ccccc2O1 (stereo not drawn)	-1.31%
CC(=O)Nc1cccc(OCC(=O)Nc2ccccc2)c1	10%
c1ccc(-c2ccc(-c3cnc4n3CCCCC4)cc2)cc1	0.861%
Cc1ccc(Cn2nnc3c(=O)n(CC(=O)NCc4ccccc4)cnc32)cc1	1.33%
Clc1ccccc1CN1CCN(/N=C/C=C\c2ccco2)CC1	11.9%
Cc1ccc(C2Nc3ccccc3C(=O)N2CCN2CCNC2=O)cc1 (stereo not drawn)	5.34%
O=c1c2nnn(-c3cccc(F)c3)c2ncn1Cc1ccccn1	8.1%
CCOC(=O)/C=C1\SCC(=O)N1CC(=O)NCc1cccc(Cl)c1	-0.928%
COc1ccc(NC(=O)Cn2c3ccccc3c3nc4n(c(=O)c32)CCS4)cc1	8.08%
COc1ccc(C(=O)NC2CC3CCCC(C2)N3CC(C)C)cc1OC (stereo not drawn)	8.35%
O=c1[nH]cnc2c1C1(CCCC1)Cc1ccccc1-2	11.3%
O=C(O)CCC(=O)OCC1CCCCC1	4.52%
Cc1ccc(NC(=O)C2CC(=O)N/C(=N/NC(=O)c3ccc(C)cc3)S2)cc1 (stereo not drawn)	10.1%
CCOc1ccccc1CN1CCNC(=O)C1CC(=O)N(C)C1CCOCC1 (stereo not drawn)	12.2%
Cc1ccc(-c2csc3ncnc(SCC(=O)NCC4CCCO4)c23)cc1 (stereo not drawn)	1.98%
O=C(NCCC1CCCCN1S(=O)(=O)c1ccccc1)C(=O)Nc1ccc(F)cc1 (stereo not drawn)	10.2%
O=C(NC(=S)Nc1ccccc1)c1cc(-c2ccccc2)nc2ccccc12	3.22%
CN1CCN(C(=S)C(=O)Nc2ccccc2)CC1	7.93%
Cc1cccnc1NC(=O)C1CC(=O)N(c2ccc3c(c2)OCCO3)C1 (stereo not drawn)	19.1%

Compound	hERG current change (%, negative = inhibition) at 1uM
CCn1cc(CN2CCN(Cc3ccsc3)C(CCO)C2)cn1 (stereo not drawn)	2.92%
CCn1cc(C(=O)O)c(=O)c2cnc(N3CCN(C(=S)Nc4ccc(F)cc4)CC3)nc21	12.6%
CN(/C(=N/S(=O)(=O)c1cccs1)c1ccccc1)c1ccc(O)cc1	12.5%
Cc1c(Cl)cccc1NC(=O)COC(=O)CCc1nc2ccccc2n1-c1ccccc1	-8.56%
Cn1c(N)c(C(=O)COC(=O)c2ccccc2NCc2ccco2)c(=O)n(C)c1=O	9.3%
CCOC(=O)[C@@H]1[C@H]2COc3ccccc3[C@@H]2N2C(=O)N(c3ccc(Cl)cc3)C(=O)[C@@]12C	3.17%
O=C(c1ccc(OC2CCN(Cc3ccccn3)CC2)cc1)N1CCC[C@H]1CO	18.3%
Cc1nc(NC(=O)c2ccco2)sc1C(=O)O	0.159%
CCC(=O)c1ccc(OCC(=O)OCC(=O)Nc2c(C)n(C)n(-c3ccccc3)c2=O)cc1	15.9%
CC1=NN(C(N)=S)C(=O)C1N=Nc1ccccc1C(=O)O (stereo not drawn)	16.9%
CCOc1ccccc1-n1c(SC(C)C(=O)NCC2CCCO2)nc2ccccc2c1=O (stereo not drawn)	4.42%
CC(c1ccccc1)C1CC(=O)N(c2ccc([N+](=O)[O-])cc2)C1=O (stereo not drawn)	-4.32%
COCCC(=O)NC1CCCc2c1cnn2-c1cccc(C)c1C (stereo not drawn)	10.8%
Cc1[nH]c2ccc(F)cc2c(=O)c1SC(F)(F)C(F)F	15.3%
Cc1nc(NC(=O)c2ccc(Cl)cc2)sc1-c1csc(Nc2cccc(F)c2)n1	8.37%
Cc1ccnc2c(N3C(=O)C4C5C=CC(C5)C4C3=O)cccc12 (stereo not drawn)	3.2%
CCN(CC)CCn1c(C)nc2c(sc3nc4c(cc32)COC(C)(C)C4)c1=O	2.62%
CNC(=O)N1c2ccccc2C=Cc2ccccc21	15.2%
CCC(=O)N1C(C(=O)N2CCCC2)CSC1c1ccc(OC)cc1 (stereo not drawn)	-2.81%
O=C(O)c1ccc(/C=N/Nc2ncc(C(F)(F)F)cc2Cl)cc1	5.48%
COc1cccc(-c2nnc(NC(=O)c3ccco3)s2)c1	16.3%
COC(c1ccccc1)c1nnc(CCC(=O)N2CCCCCCC2)o1 (stereo not drawn)	0.333%
